About 560 (0.28%) of roughly 200,000 compounds were called active. The shares of active, inactive and inconclusive entries below differ from those in the screen. Calls follow the shape of the dose curve; as a rule, active = well fitted inhibition curve with a large enough effect; inconclusive = small, poorly fitted or top-dose-only effect; inactive = flat fitted curve, though single readings scatter. Potencies of inconclusive entries are left out as doubtful fits.
molecular target: Luciferin 4-monooxygenase (Photuris pensylvanica) (UniProt Q27757); assay: Counterscreen for Luciferase (Kinase-Glo TM) Inhibition; conditions: ATP luminescence, 8 min; series mostly up to 38.3 µM; activity change, negative = inhibition: at the top concentration; also: nearly all actives have a fitted effect of over 60% in size
Summary of the method: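 Recombinant Kinase-Glo luciferase, 10 uM ATP (linear range), luciferin; imidazole pH 7.2 / KCl / MgCl2 / Tween / BSA buffer; 8 min RT; luminescence.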
% is scaled to controls: 0 for no effect and ±100 for the full control effect; potency is read from the fitted curve at half-maximal effect; tags tell the direction and shape of the fitted curve.

Row | SMILES | Potency | activity change, negative = inhibition
1 | O=C(Nc1cccnc1)Nc1ccc2c(c1)OCO2 | inconclusive [inhibitor, partial curve] | 
2 | CN(c1ccc2nc3ccccc3c(=O)n2n1)C1CCCCC1 | active: 6.31 µM | 
3 | C[C@@H](C(=O)O)c1ccc(N2Cc3ccccc3C2=O)cc1 | inconclusive [inhibitor, partial curve] | 
4 | Cn1cccc1C(=O)C(=O)Nc1cc(Cl)cc(Cl)c1 | active: 11.2 µM | 
5 | O=C(Nc1ccc2c(c1)OCCO2)c1ccccn1 | active: 12.6 µM | 
6 | CC(C)[C@H](NS(=O)(=O)c1ccccc1)C(=O)OCC(=O)NC(=O)c1cccn1C | inconclusive [inhibitor, partial curve] | 
7 | Nc1ccc2nc(-c3ccc(Cl)cc3)[nH]c2c1 | inconclusive [inhibitor, partial curve] | 
8 | O=C(Nc1nc2ccccc2[nH]1)c1cccs1 | inconclusive [inhibitor, partial curve] | 
9 | CC(=O)c1sc(NC(=O)c2ccccc2F)nc1C | active: 10 µM | 
10 | Oc1ccccc1-c1nc(NCc2ccco2)c2ccccc2n1 |  | inactive: 3.8%
11 | CCC(c1nnc(SCc2nc3ccccc3s2)n1Cc1ccccc1)N(C)C (stereo not given) |  | inactive: -4.7%
12 | Cc1ccsc1C(=O)N/N=C/c1ccc2c(c1)OCO2 | active: 2 µM | 
13 | O=[N+]([O-])c1ccccc1N/N=C\c1ccccc1Cl | inconclusive [inhibitor, partial curve] | 
14 | COc1ccc(C)cc1N=Nc1ccc(O)c2ncccc12 |  | inactive: -5.4%
15 | O=C(O)c1c[nH]c2cc(OCc3ccccc3)ccc2c1=O |  | inactive: -8.08% [at 7.66 µM]
16 | COc1cc([N+](=O)[O-])ccc1N/C=C/C(=O)c1cccs1 | inconclusive [inhibitor, single point] | 
17 | c1cnc2nc(-c3ccc4c(c3)OCO4)cn2c1 | inconclusive [inhibitor, partial curve] | 
18 | Fc1ccccc1/C=C/c1ccc2ccccc2n1 | inconclusive [inhibitor, partial curve] | 
19 | CCN1/C(=C2\C(=O)N(C)C(=S)N2C)C=Cc2ccccc21 | inconclusive [inhibitor, single point] | 
20 | N/C(=N\OC(=O)N1CCOCC1)c1ccccc1 | inconclusive [inhibitor, partial curve] | 
21 | O=C(Nc1ccccc1)N1CCc2ccccc21 | inconclusive [inhibitor, partial curve] | 
22 | N/C(=N\O)c1ccc(NC(=O)c2cccs2)cc1 | inconclusive [inhibitor, partial curve] | 
23 | Cc1cc2nc(-c3cccnc3SCC(=O)NC(C)C)[nH]c2cc1C | inconclusive [inhibitor, single point] | 
24 | Cc1ccc2c(c1)N=C(c1ccc(Cl)cc1)CO2 | inconclusive [inhibitor, single point] | 
25 | Cc1nn(C)c(C)c1CNC(=O)/C=C/c1ccccc1F |  | inactive: -3.94%
26 | Clc1ccc(CSc2nc3ccncc3[nH]2)cc1 | inconclusive [inhibitor, single point] | 
27 | On1c(-c2ccc(Cl)cc2)nc2ccccc21 | inconclusive [inhibitor, single point] | 

Row | SMILES | Potency | activity change, negative = inhibition
28 | COc1ccccc1N1CCN(C(c2ccccc2Cl)c2nnnn2C(C)(C)C)CC1 (stereo not given) |  | inactive: -1.4%
29 | O=C(COc1ccc2c(c1)OCO2)Nc1ccccc1F | inconclusive [inhibitor, partial curve] | 
30 | Cc1ccc(S(=O)(=O)N2CCN(S(=O)(=O)N3CCCCCC3)CC2)cc1 |  | inactive: 0.108%
31 | COCCNC(=O)C(c1ccc(Cl)cc1)N(CCOC)C(=O)CCC(=O)Nc1nccs1 (stereo not given) |  | inactive: 2.04%
32 | CN(CCC#N)c1ccc(/C=C(\C#N)c2ccccn2)cc1 | inconclusive [inhibitor, single point] | 
33 | CCCCC(=O)Nc1ncc([N+](=O)[O-])s1 |  | inactive: 2.93%
34 | O=[N+]([O-])c1ccccc1/C=N/Nc1nccnc1Cl | inconclusive [inhibitor, partial curve] | 
35 | CC1C(=O)NN=C1C(=O)N/N=C/c1ccco1 (stereo not given) | inconclusive [inhibitor, single point] | 
36 | COc1cccc2cc(-c3nnc(-c4ccccc4)o3)c(=O)oc12 | inconclusive [inhibitor, partial curve] | 
37 | CS(=O)(=O)N(Cc1ccc(C(=O)NCCSCc2ccco2)cc1)c1ccccc1 |  | inactive: 13.9%
38 | C/C(=N\NC(=O)c1cc(C(C)C)[nH]n1)c1ccco1 | active: 8.91 µM | 
39 | CCCCn1c2c(c(=O)n(C)c1=O)C(c1ccc(OC)cc1)N1CCCCCC1=N2 (stereo not given) |  | inactive: -6.86%
40 | CC(C)(C)n1ncc2c(=O)n(CC(=O)OCc3ccccc3)cnc21 | inconclusive [inhibitor, single point] | 
41 | CC1=CC(=O)C2C(C)(C)CCC[C@@]2(C)[C@@]1(O)CCc1ccoc1 (stereo not given in full) |  | inactive: 2.7%
42 | Cc1cccc(-n2ncc3c(N4CCOCC4)ncnc32)c1 | inconclusive [inhibitor, single point] | 
43 | COc1cc(Cl)c(S(=O)(=O)N2CCOCC2)cc1Cl |  | inactive: -2.15%
44 | COc1ccccc1/C=N/Nc1nccnc1Cl | inconclusive [inhibitor, partial curve] | 
45 | Cc1ccc(-c2nc3ccccc3n2C)o1 | active: 7.94 µM | 
46 | O=C(Nc1ccccn1)c1ccc2ccccc2n1 | inconclusive [inhibitor, single point] | 
47 | Cc1nc(NC(=O)c2ccc(Br)o2)sc1C | inconclusive [inhibitor, partial curve] | 
48 | CCn1nnnc1-c1ccc(OC)c(S(=O)(=O)Nc2ccc(C)c(C)c2)c1 |  | inactive: -0.527%
49 | Clc1ccc2c(c1)C1OCCC1C(c1ccco1)N2 (stereo not given) | inconclusive [inhibitor, single point] | 
50 | COc1ccc(NC(=O)c2ccco2)cc1N | inconclusive [inhibitor, single point] | 
51 | N/C(=N\N=C\c1ccc2c(c1)OCO2)c1nonc1N | inconclusive [inhibitor, partial curve] | 
52 | COc1cccc(-c2cn3nc4c(nc3n2)CCCC4)c1 | active: 10 µM | 
53 | N#C/C(=C\c1ccco1)c1nc2ccccc2s1 | inconclusive [inhibitor, single point] | 
54 | Clc1ccc(/C=N/c2c(-c3ccco3)nc3ccccn23)cc1 | inconclusive [inhibitor, single point] | 

Row | SMILES | Potency | activity change, negative = inhibition
55 | CCCCNC(=O)C1CCN(C/C(C)=C/c2ccccc2)CC1 |  | inactive: 1.44%
56 | C=CCSC1=N/C(=C\c2cc(OCC)c(OC(C)=O)c([N+](=O)[O-])c2)C(=O)S1 | inconclusive [inhibitor, partial curve] | 
57 | COc1ccc(C=C2C(=O)c3ccccc3C2=O)cc1O | active: 7.94 µM | 
58 | Cc1nn(-c2ccc(C(=O)O)cc2)c(C)c1Oc1ccccc1O |  | inactive: 2.07%
59 | COCCNC(=S)N/N=C(\C)c1ccc(O)cc1 |  | inactive: -0.133%
60 | CC1=C(C#N)C(/C=N/OCc2ccc(F)cc2Cl)CC(=O)N1 (stereo not given) |  | inactive: 1.33%
61 | CCOc1ccc(N/C=C/C(=O)c2ccc(OC)cc2)c([N+](=O)[O-])c1 | inconclusive [inhibitor, partial curve] | 
62 | Cc1ncoc1C(=O)Nc1ccc2c(c1)OCCO2 | inconclusive [inhibitor, partial curve] | 
63 | COc1ccccc1C(=O)NNC(=O)c1cccc(F)c1 | inconclusive [inhibitor, partial curve] | 
64 | Cc1ccc(-c2nc(N)s[n+]2-c2ccccc2)cc1 | inconclusive [inhibitor, single point] | 
65 | COc1ccc(NC(=O)/C=C/c2ccc(Cl)cc2)cc1 | inconclusive [inhibitor, partial curve] | 
66 | Cc1ccsc1C(=O)OCc1csc(-c2ccccc2)n1 | inconclusive [inhibitor, partial curve] | 
67 | CCC(=O)Oc1ccc(C(=O)Nc2ccc3c(c2)OCO3)cc1 | inconclusive [inhibitor, partial curve] | 
68 | Cc1cc(C)n(-c2ccc(C(=O)Nc3ccccn3)cc2)n1 | inconclusive [inhibitor, partial curve] | 
69 | N/C(=N\OC(=O)c1ccco1)c1ccccc1 | inconclusive [inhibitor, partial curve] | 
70 | CCn1c(-c2ccc(C)cc2)n[nH]c1=S |  | inactive: -2.58%
71 | Cc1nc2sc3c(c2c(=O)o1)CCCC3 |  | inactive: -2.3%
72 | COc1ccc2oc(-c3ccco3)cc(=O)c2c1 | inconclusive [inhibitor, single point] | 
73 | COc1cc(SC#N)ccc1N=Cc1c(C)[nH]n(-c2ccc(C)c(C)c2)c1=O | inconclusive [inhibitor, partial curve] | 
74 | CC1CCCCN1C(=O)CNCC1CCCO1 (stereo not given) |  | inactive: -2.89%
75 | Cc1ccc(N=Cc2c(C)[nH]n(-c3nc4ccccc4[nH]3)c2=O)cc1 | active: 5.01 µM | 
76 | O=c1cc(-c2ccccc2O)oc2ccc3ccccc3c12 | inconclusive [inhibitor, partial curve] | 
77 | CC(C)(C)C(=O)OCC(=O)C1CCC2C3CCC4=CC(=O)CCC4(C)C3CCC12C (stereo not given) |  | inactive: 2.35% [at 39.9 µM]
78 | NC(=O)c1ccccc1N/C=C/C(=O)c1ccc(Cl)cc1 | inconclusive [inhibitor, partial curve] | 
79 | COc1ccc(/C=C2/SC(=O)N(CCNC(=O)C3COc4ccccc4O3)C2=O)cc1 (stereo not given) |  | inactive: -0.743%
80 | CN(C)c1ccc(C(=C2C=CC(=[N+](C)C)C=C2)c2c(O)c(S(=O)(=O)O)cc3cc(S(=O)(=O)O)ccc23)cc1 | inconclusive [inhibitor, partial curve] | 

Source: PubChem BioAssay AID1379 (National Center for Advancing Translational Sciences (NCATS), 2008)
